Experimental data published in PubChem BioAssay AID360 (National Center for Advancing Translational Sciences (NCATS), 2006).
The campaign covered roughly 48,000 compounds. About 550 (1.1%) were called active. Not shown: some 4% with an inconclusive outcome. Rule as the data show it: active = potency below about 15 µM; inconclusive = mostly about 16 µM to 33 µM; inactive = weaker than that. The list shows a part of the results.

Target: Lysosomal acid glucosylceramidase (Homo sapiens) (UniProt P04062)
Chain of UniProt P04062 (P04062 whole entry, looked up): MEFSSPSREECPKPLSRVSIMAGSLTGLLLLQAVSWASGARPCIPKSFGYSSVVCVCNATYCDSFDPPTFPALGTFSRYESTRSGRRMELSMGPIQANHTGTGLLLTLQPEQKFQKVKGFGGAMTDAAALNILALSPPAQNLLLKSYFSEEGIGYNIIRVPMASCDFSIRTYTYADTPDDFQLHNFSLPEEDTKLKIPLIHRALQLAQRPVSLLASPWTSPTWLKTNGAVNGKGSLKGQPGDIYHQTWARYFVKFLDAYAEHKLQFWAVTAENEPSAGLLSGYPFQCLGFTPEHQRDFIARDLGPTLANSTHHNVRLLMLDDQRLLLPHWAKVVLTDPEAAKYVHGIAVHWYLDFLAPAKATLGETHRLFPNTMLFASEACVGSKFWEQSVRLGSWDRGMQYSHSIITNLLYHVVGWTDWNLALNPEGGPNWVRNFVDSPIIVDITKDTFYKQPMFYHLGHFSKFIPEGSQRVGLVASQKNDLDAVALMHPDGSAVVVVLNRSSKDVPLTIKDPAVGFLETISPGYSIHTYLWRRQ
Test: Glucocerebrosidase;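 also: the screen sought inhibitors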
Settings: purified enzyme, resorufin glucoside fluorescence (screen aimed at inhibitors), 20 min
In short: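 Normal human glucocerebrosidase (0.2 nM final) was assayed with resorufin β-D-glucopyranoside (30 uM final) in 50mM citric acid/KH2PO4, 10mM sodium taurocholate, 0.01% tween-20, pH 5.9. Compounds were titrated; fluorescence (Ex 548, Em 600) read after 20 min at RT.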
Potency is read from the fitted curve at half-maximal effect.

Potency, inactive:
CCC(C)(C(=O)NC1CCCCC1)N(C(=O)C1CCC(=O)N1)c1ccc(C)cc1 (centres undefined) > 76.9 µM, O=C(Nc1ccc2nn(-c3ccccc3)nc2c1)c1ccc(Br)o1 > 76.9 µM, C=C(C)COc1ccc(-c2nc(N)nc(C)c2Oc2ccccc2OC)c(O)c1 > 76.9 µM, Cc1ccc(CC(=O)Nc2nncs2)cc1 > 76.9 µM, CCN(C(=O)CN1CCN(c2ccc(O)cc2)CC1)c1c(N)n(Cc2ccccc2)c(=O)[nH]c1=O > 76.9 µM, CC1Cc2ccccc2N1C(=O)CSc1nnc2n1C(C)(C)Cc1ccccc1-2 (centres undefined) > 76.9 µM, COc1ccc(Br)cc1C(=O)NCc1cccnc1 > 76.9 µM, N#Cc1nc(-c2ccc(OCc3ccc(Cl)cc3)cc2)oc1NCc1cccnc1 > 76.9 µM, CC1(C)c2ccccc2N2CC(=O)NC21/C=C/c1ccco1 (centres undefined) > 76.9 µM, CC1(C)CC(=O)C(C=NCCc2ccc(S(N)(=O)=O)cc2)=C(O)C1 > 76.9 µM, Cn1c(Cc2cccs2)nnc1SCC(=O)N1CCc2ccccc21 > 76.9 µM, Cc1cc(=O)[nH]c(Nc2c(C)n(C)n(-c3ccccc3)c2=O)n1 > 76.9 µM, COc1cc2c(cc1NC(=O)COC(=O)Cn1cnc3ccccc31)oc1ccccc12 > 76.9 µM, O=C(N1CCCCCC1)N1CCN(S(=O)(=O)N2CCCCC2)CC1 > 76.9 µM, CN(C)CCOc1nc(-c2ccccc2)nc2c1oc1ccccc12, CCOC(=O)N1CCN(C(=O)CSc2nc(-c3cccc(C)c3)ns2)CC1 > 76.9 µM, COCc1cc(C)nc2sc(C(=O)N3CCCC3)c(N)c12 > 76.9 µM, O=C(c1ccc(Cl)c(Cl)c1)N1CCOCC1 > 76.9 µM, CC1CCc2c(sc3ncnc(SCC(=O)N4CCN(C(=O)c5ccco5)CC4)c23)C1 (centres undefined) > 76.9 µM, O=C(CS(=O)(=O)c1c[nH]c2ccccc12)N1CCCCC1 > 76.9 µM, Cc1cccc(CC(=O)Nc2c3c(nn2-c2cccc(Cl)c2)CS(=O)C3)c1 (centres undefined) > 76.9 µM, Cc1ccc(S(=O)(=O)N2CCC(C(=O)Nc3ccccc3N3CCCCC3)CC2)cc1 > 76.9 µM, O=C(CCCCn1c(=O)[nH]c2ccccc2c1=O)N1CCN(c2cccc(C(F)(F)F)c2)CC1 > 76.9 µM, Cc1ccc(C2(C(F)(F)F)NC(=O)N3CCCN=C3S2)cc1 (centres undefined) > 76.9 µM, COc1ccc(OC)c(S(=O)(=O)N(C)CC(=O)Nc2cc(Cl)ccc2OC)c1 > 76.9 µM, CSc1cccc(NC(=O)c2nnn(Cc3ccccc3)c2N)c1 > 76.9 µM, Cc1cc(C)n(CC(O)CN2C(=O)NC(C)(C)C2=O)n1 (centres undefined) > 76.9 µM, OC12CCCCC1C(c1ccc3c(c1)OCO3)N(Cc1ccc(F)cc1)CC2 (centres undefined) > 76.9 µM, COc1ccc(S(=O)(=O)N2CCc3ccccc32)cc1C(=O)OCc1c(C)noc1C > 76.9 µM, Cn1c(=O)oc2cc(S(=O)(=O)Nc3cccc4c3CCCC4)ccc21 > 76.9 µM, CCCCC(OC(=O)c1cc2occc2n1C)C(=O)NCC1CCCO1 (centres undefined) > 76.9 µM, O=C(CN1C(=O)CSC1=O)Nc1ccc(C(=O)O)cc1 > 76.9 µM, CCn1c(N2CCN(CC(=O)Nc3cccc(C)c3C)CC2)nc2ccccc21 > 76.9 µM, Cc1ccc(-n2c(=O)[nH]cc(C(=O)Nc3ccc4c(c3)OCCO4)c2=O)cc1C > 76.9 µM, Cc1ccc(C(=O)NC2CC(C)(C)NC(C)(C)C2)c(C)c1 > 76.9 µM, Cc1ccc2nsnc2c1S(=O)(=O)N(CCO)Cc1cc2cc3c(cc2[nH]c1=O)OCCO3 > 76.9 µM, COc1ccc(NC(=O)c2c(SC)nsc2SC)cc1 > 76.9 µM, Cc1cc(=O)[nH]c(SCC(=O)Nc2cccc(C(F)(F)F)c2)n1 > 76.9 µM, CCOc1ccc(C(F)(F)F)cc1NC(C)=O > 76.9 µM, COc1ccc(S(=O)(=O)N(CC(=O)N2CCOCC2)c2cc(Cl)ccc2OC)cc1OC > 76.9 µM, CCN(CC)c1ccc(CN(C(=O)c2ccco2)C2CCS(=O)(=O)C2)cc1 (centres undefined) > 76.9 µM, COC(=O)C1=C(C)NC(=O)NC1/C=C/c1ccccc1 (centres undefined) > 76.9 µM, OCc1nnn(-c2cccc(C(F)(F)F)c2)c1CO > 76.9 µM, Cc1cc(C)c2[nH]c(=O)c(CN(C(=O)C3CCCO3)C3CCCC3)cc2c1 (centres undefined) > 76.9 µM, CCOC(=O)c1c(NC(=O)COC)sc2c1CCCC2 > 76.9 µM, CCOC(=O)c1ccc(N2C(=O)CC(N3CCOCC3)C2=O)cc1 (centres undefined) > 76.9 µM, O=C(CSc1nnnn1C1CCCCC1)Nc1ccc2c(c1)OCO2 > 76.9 µM, O=C(NCc1ccccc1)c1ccc(-c2ccccc2F)o1 > 76.9 µM, CCCOc1ccc2oc(=O)c3c(c2c1)CCCN3C(=O)CN1CCN(C(=O)c2ccco2)CC1 > 76.9 µM, COc1ccc(OC)c(N(CC(=O)N2CCN(c3cc(Cl)ccc3C)CC2)S(C)(=O)=O)c1 > 76.9 µM, N#Cc1c[nH]n2c(=O)cc(Cc3ccccc3)nc12 > 76.9 µM, Cc1nn(Cc2ccccc2)c(Cl)c1C(=O)NCc1ccc(C)n1C > 76.9 µM, CCCS(=O)(=O)NCCc1cc2cc(C)c(C)cc2[nH]c1=O > 76.9 µM, COc1ccc(NC(=O)CSC2CCCCC2)cc1 > 76.9 µM, CC(C)Cn1c2c(c(O)c(C(=O)Nc3ccc(F)cc3)c1=O)CCCC2 > 76.9 µM, O=C(O)C1CCCCC1C(=O)NC1CCCCC1 (centres undefined) > 76.9 µM, O=C(COc1ncnc2ccc(Br)cc12)Nc1ccc(N2CCOCC2)cc1 > 76.9 µM, CCCCn1nnc(NC(=O)Cc2ccc(Cl)cc2)n1 > 76.9 µM, Cn1c(=O)c2c(nc(NCCc3ccccc3)n2Cc2ccccc2)n(C)c1=O > 76.9 µM
